Out of some 310,000 compounds screened, about 2,200 (0.71%) showed an effect of 50% or more. The effect is printed as a negative number. This is one part of the list.

The assay deals with human ether-à-go-go-related gene (hERG) potassium channel (human, UniProt Q12809). As to the kind of experiment: primary screen, population patch clamp on CHO cells stably expressing hERG.
Sequence of human ether-à-go-go-related gene (hERG) potassium channel (Q12809 whole entry, looked up): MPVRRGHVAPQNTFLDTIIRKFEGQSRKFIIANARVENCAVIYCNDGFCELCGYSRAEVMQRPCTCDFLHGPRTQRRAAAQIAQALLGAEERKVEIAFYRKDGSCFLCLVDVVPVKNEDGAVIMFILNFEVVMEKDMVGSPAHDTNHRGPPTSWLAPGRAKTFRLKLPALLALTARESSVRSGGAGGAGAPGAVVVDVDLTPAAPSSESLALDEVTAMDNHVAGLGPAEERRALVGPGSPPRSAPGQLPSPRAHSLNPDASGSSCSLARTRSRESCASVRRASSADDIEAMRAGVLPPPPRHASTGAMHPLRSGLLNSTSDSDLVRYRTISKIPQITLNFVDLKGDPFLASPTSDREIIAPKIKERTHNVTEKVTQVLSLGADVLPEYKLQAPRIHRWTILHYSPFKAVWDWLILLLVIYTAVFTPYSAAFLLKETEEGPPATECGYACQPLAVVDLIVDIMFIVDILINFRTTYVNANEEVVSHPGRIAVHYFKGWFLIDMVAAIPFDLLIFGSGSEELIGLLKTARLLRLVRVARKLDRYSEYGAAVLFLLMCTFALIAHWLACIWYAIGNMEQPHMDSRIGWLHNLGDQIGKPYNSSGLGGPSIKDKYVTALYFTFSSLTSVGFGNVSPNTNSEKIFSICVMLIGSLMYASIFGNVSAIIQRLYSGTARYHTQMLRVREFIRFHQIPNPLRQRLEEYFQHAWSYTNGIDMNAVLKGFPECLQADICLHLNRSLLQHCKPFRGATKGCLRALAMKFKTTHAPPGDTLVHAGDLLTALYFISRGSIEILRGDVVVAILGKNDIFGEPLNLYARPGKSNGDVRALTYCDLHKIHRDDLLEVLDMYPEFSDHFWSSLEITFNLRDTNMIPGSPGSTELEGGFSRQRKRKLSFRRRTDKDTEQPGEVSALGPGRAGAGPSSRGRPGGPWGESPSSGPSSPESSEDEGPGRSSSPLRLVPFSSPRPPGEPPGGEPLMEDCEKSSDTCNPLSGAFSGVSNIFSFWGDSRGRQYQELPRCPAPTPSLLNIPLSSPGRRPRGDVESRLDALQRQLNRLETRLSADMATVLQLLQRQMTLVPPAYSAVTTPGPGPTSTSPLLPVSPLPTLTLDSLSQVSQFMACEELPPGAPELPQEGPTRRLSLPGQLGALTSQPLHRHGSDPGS
Regarding `Cc1noc(C)c1C(=O)N1CCN(Cc2ccccc2)CC1`, the “hERG current change (%, negative = inhibition) at 1uM” value is recorded as 8.36%. As for `CCOc1cc(/C=N/NC(=O)c2cccnc2)ccc1O`, the “hERG current change (%, negative = inhibition) at 1uM” value was 7.47%. The figure for `CC(C)Oc1ccc(OCCCN2CCCCCC2)cc1.O=C(O)C(=O)O` is -14.1%. The result for `CCNC(=O)c1cc2ccccc2o1` reads 4.58%; that for `Cc1cc(C(=O)O)ccc1-c1ccc(CO)o1`, 17.8%; that for `Cc1ccc(OCC(=O)Nc2ccc(S(=O)(=O)N3CCCCC3)cc2)c([N+](=O)[O-])n1`, 26.3%.

In the case of `O=S(=O)(c1ccc(F)cc1)c1nc(-c2ccccc2F)oc1N1CCCCC1`, the “hERG current change (%, negative = inhibition) at 1uM” value was -8.49%. The figure for `O=C(COc1ccc(Cl)cc1Br)N1CCN(S(=O)(=O)c2ccccc2)CC1` is 5.13%; for `O=C(NCCc1ccc(Cl)cc1)C1CCN(S(=O)(=O)N2CCCC2)CC1` it is -0.168%. The result for `CSc1ccccc1NC(=O)c1ccc(CN2CCOCC2)cc1` reads 12.4%. Consider `O=C(O)c1nn(Cc2nc3ccccc3o2)c(=O)c2ccccc12`, for which the “hERG current change (%, negative = inhibition) at 1uM” value was 16.2%. `Cc1ccc(Cn2c(CN3CCN(C(=O)c4ccco4)CC3)nc3c2c(=O)n(C)c(=O)n3C)cc1`: the “hERG current change (%, negative = inhibition) at 1uM” value was -18.8%. The figure for `COc1ccc(N=Cc2cc3c(cc2O)OC(N)=C(C#N)C3c2ccccc2)cc1` (stereo not drawn) is 7.56%; for `O=C1NC(=O)C2(COC(c3cccnc3)OC2)S1` (stereo not drawn) it is 10.9%. The figure for `CCN(CC(=O)Nc1c(F)cccc1F)C(=O)CCNC(=O)c1ccc([N+](=O)[O-])cc1` is -13%; for `COc1ccc2nc(NC(=O)c3cccc(S(=O)(=O)N4CCOCC4)c3)sc2c1` it is 13.7%; for `N#Cc1ccccc1OCC(=O)OCC(=O)NC1CCS(=O)(=O)C1` (stereo not drawn) it is 4.81%.

Turning to `CCc1ccccc1NC(=O)COC(=O)c1c(C)nsc1NC`, the “hERG current change (%, negative = inhibition) at 1uM” value is 4.98%.

Turning to `COc1cccc(N2[C@@H](CC(C)=O)c3ccc(/C=C/C(C)=O)cc3S2(=O)=O)c1`, the “hERG current change (%, negative = inhibition) at 1uM” value came to 8.23%.

`NC1=NC(=O)/C(=C\c2ccco2)S1`: the “hERG current change (%, negative = inhibition) at 1uM” value was 16.9%. The result for `O=C1S/C(=C\c2ccccn2)C(=O)N1Cc1ccccc1F` reads 12.6%; that for `NC(=O)C12CCCC(Br)(CCC1)C2`, 5.6%. The figure for `Cc1nc(NC(=O)c2ccc(Br)o2)sc1C` is 8.42%; for `CCCn1c(SCC(=O)N2CCCC(C)C2)nnc1-c1cccnc1` (stereo not drawn) it is 16.6%.

Regarding `COc1cccc(NC(=O)CN(C)C(=O)Cn2[nH]c(=O)c3ccccc3c2=O)c1`, the “hERG current change (%, negative = inhibition) at 1uM” value came to 24%.

As for `CSc1ncccc1C(=O)NC1CCCCCC1`, the “hERG current change (%, negative = inhibition) at 1uM” value was found to be 5.33%. On to `Cc1ccc(CNC(=S)Nc2cc(C)ccc2OC(F)F)cc1`, for which the “hERG current change (%, negative = inhibition) at 1uM” value is recorded as 2.49%. The figure for `CC(=O)N1CCC(C(=O)Nc2ccccc2)(N(Cc2ccccc2)C(=O)c2cccnc2)CC1` is 17.6%; for `Cc1ccc(N=Nc2ccc(O)c3ncccc23)cc1` it is 18.3%; for `CC1CN(C(=O)c2ccccc2Oc2ccccc2)CC(C)O1` (stereo not drawn) it is 3.26%. The result for `CCC(C)c1ccc(O)c(NC(=O)c2cncc(Br)c2)c1` (stereo not drawn) reads -2.11%; that for `COc1ccc(CN2CCCC(C(=O)Nc3cccc(-n4cccn4)c3)C2)cc1` (stereo not drawn), 1.9%. The figure for `CCOC(CNc1cc(C)nc2c(-c3ccccc3OC)c(C)nn12)OCC` is 12.6%. As for `CCC(C)[C@H](NC(=O)N1CCCC1)C(=O)OC` (stereo partly drawn), the “hERG current change (%, negative = inhibition) at 1uM” value is 2.13%. The result for `COc1ccc(C(=O)Nc2nncs2)c(OC)c1` reads 11.1%; that for `CCC(C)(NC(=O)c1ccc(=O)[nH]c1)C(=O)NC1CCCC1` (stereo not drawn), 7.25%. The figure for `N#CC1(NC(=O)CN2CCN(S(=O)(=O)c3ccccc3F)CC2)CCCC1` is -4.06%; for `Cc1cccc(C(=O)C2CCOC(C)(C)C2)c1` (stereo not drawn) it is 12.8%. As for `Cc1ccsc1C(=O)C1CCCN(Cc2cn(C)nc2-c2ccccc2)C1` (stereo not drawn), the “hERG current change (%, negative = inhibition) at 1uM” value came out at 2.96%. For `c1ccc(Cn2ccc(-c3cnc(-c4ccccc4)s3)n2)cc1`, the “hERG current change (%, negative = inhibition) at 1uM” value is given as 20.5%. The figure for `CCOc1ccc(-c2nnc3sc(COc4ccccc4)nn23)cc1` is 21.7%. On to `COc1cc(O)cc2c1[C@@H]1Oc3c(ccc(O)c3CC=C(C)C)[C@@H]1CO2`, for which the “hERG current change (%, negative = inhibition) at 1uM” value is listed as -4.24%. Consider `CCN(CC)S(=O)(=O)c1ccc(C(=O)N2CCN(C3=NS(=O)(=O)c4ccccc43)CC2)cc1`, for which the “hERG current change (%, negative = inhibition) at 1uM” value is recorded as 3.62%.

As for `O=C(OCc1nc2scc(-c3ccccc3)c2c(=O)[nH]1)c1cccc([N+](=O)[O-])c1`, the “hERG current change (%, negative = inhibition) at 1uM” value came to 5.93%. The result for `O=c1c2ccccc2n2c(-c3cccc(Cl)c3)nnc2n1Cc1ccccc1` reads 10%.

These data come from publication PMC4336329 (PLoS ONE, 2015).
